The source gives no read counts; variants with many changes may rest on few reads.
B1: LINE1-mini (parent)
chain: GGCAGAGCUCAACACAGCGUGGCAAAGUGGCUGUGGCUAGACUGCC

Variants of: B1
Test: self-cleavage, relative activity (ratio to wild type); higher = more cleavage; in vitro, sequencing; the parent is a self-cleaving ribozyme
Variant A16G G17C A24G C31A has a self-cleavage of 0.26.
With A16U G17C C31A G33U the self-cleavage was 0.03.
Work on A16C U20C G21C yielded a self-cleavage of 0.08.
In the case of A16G C37U G40A C45U, the self-cleavage is reported as 0.06.
For A16U C18A U38G C42A, the self-cleavage was 0.03.
With A16G G17C C18A A41C the self-cleavage was 0.02.
A16U G17U A25G U32C showed a self-cleavage of 0.09.
A16G C31A C42G showed a self-cleavage of 0.01.
Variant A16U G21U C23U has a self-cleavage of 0.17.
Variant A16U G19U U43C has a self-cleavage of 0.01.
A16U C31A A41C C45G gave a self-cleavage of 0.
Variant G17A A25U U34A has a self-cleavage of 0.16.
G17A C18U U38G gave a self-cleavage of 0.02.
Variant A16U G30A G36A C37G has a self-cleavage of 0.03.
Work on A16G U28C C31U yielded a self-cleavage of 0.01.
For A16G G17C G36A, the self-cleavage was 0.25.
A16G G19A G29C G33A showed a self-cleavage of 0.08.
With A16G A41G C45G the self-cleavage was 0.01.
A16G U28C G30A U43G showed a self-cleavage of 0.
A16U G21U G22C C31A G35U showed a self-cleavage of 0.02.
In the case of A16U C31A G44C, the self-cleavage is reported as 0.02.
Variant A16G G19U G22U G30A G36C G40A has a self-cleavage of 0.13.
In the case of A16G U28A U34G, the self-cleavage is reported as 0.16.
Work on A16U A26C G30A C45A yielded a self-cleavage of 0.03.
Variant A16C U20G G35A A41G G44U has a self-cleavage of 0.02.
For A16G G21U A24C G44U, the self-cleavage was 0.04.
With A16G G19A A24C C46U the self-cleavage was 0.02.
For A16U G19U U38C, the self-cleavage was 0.08.
In the case of A16G C18U A26C G29U C42A, the self-cleavage is reported as 0.04.
A16U U28A C42G gave a self-cleavage of 0.03.
Work on G17A C18U G33U G40C yielded a self-cleavage of 0.1.
A16G A25U U28C showed a self-cleavage of 0.33.
Work on A16U U28A G30A yielded a self-cleavage of 0.1.
A16G G30C G36A A39U showed a self-cleavage of 0.08.
A16G G21U G35U showed a self-cleavage of 0.06.
Variant A16G U34G C45G has a self-cleavage of 0.02.
In the case of A16G G17U A25G G44C, the self-cleavage is reported as 0.04.
In the case of A16U G22U G33C C37U G40U, the self-cleavage is reported as 0.02.
Work on A16G G40C A41U C42A yielded a self-cleavage of 0.04.
In the case of A16G C18U G30U, the self-cleavage is reported as 0.03.
Work on A16G U28G G30A G44A yielded a self-cleavage of 0.01.
In the case of A16U G36U C37U C46A, the self-cleavage is reported as 0.04.
Work on A16G A26U C31A A41U yielded a self-cleavage of 0.02.
In the case of A16U A25U G27A, the self-cleavage is reported as 0.94.
Variant A16U G22U C46U has a self-cleavage of 0.08.
A16U U28G C31A showed a self-cleavage of 0.25.
A16U C42U U43G showed a self-cleavage of 0.07.
Work on A16U G21U A26C C31A G33A yielded a self-cleavage of 0.17.
A16U U32C C37U gave a self-cleavage of 0.04.
A16G G22C G29U showed a self-cleavage of 0.07.
In the case of A16G G22U C23G C45A, the self-cleavage is reported as 0.36.
With A16G A26G G40U the self-cleavage was 0.
For A16G C31U A39C C46A, the self-cleavage was 0.
For A16G G29C G33U U38C C45G, the self-cleavage was 0.01.
In the case of A16U G36U C45U, the self-cleavage is reported as 0.02.
Variant A16U G17A C31G has a self-cleavage of 0.03.
Variant A16G A26C U38G has a self-cleavage of 0.03.
For A16U U32A C42A, the self-cleavage was 0.07.
With A16U U20G C37A the self-cleavage was 0.01.
Variant A16G G27U U28C G36U U43G has a self-cleavage of 0.
A16U U20A G22C showed a self-cleavage of 0.1.
A16U G19U U28C C31G G35A showed a self-cleavage of 0.14.
With A16U U28C C46G the self-cleavage was 0.03.
Work on A16U C42G G44A yielded a self-cleavage of 0.02.
In the case of A16U A41G C45U, the self-cleavage is reported as 0.09.
In the case of A16G G22C G40U C42G, the self-cleavage is reported as 0.02.
Variant A16G A26C C42A has a self-cleavage of 0.02.
For A16G A24C A26C U32C, the self-cleavage was 0.2.
Work on G17A A41U U43C G44C yielded a self-cleavage of 0.02.
Variant A16U C23G G30C has a self-cleavage of 0.02.
Work on A16G G35C C46A yielded a self-cleavage of 0.04.
A16G A26U G30A U34C G36U showed a self-cleavage of 0.03.
A16G G44C C45U showed a self-cleavage of 0.05.
In the case of A16U A25U A26C G30C C31G U38G, the self-cleavage is reported as 0.01.
Variant A16G G30U U32C has a self-cleavage of 0.19.
A16C U32A G40A C46U showed a self-cleavage of 0.09.
Work on G17A C31U G35A U38A G40A yielded a self-cleavage of 0.01.
A16G U20C A39G gave a self-cleavage of 0.02.
Variant A16C G36A G40A has a self-cleavage of 0.02.
A16G G21U G27U gave a self-cleavage of 0.78.
Variant A16U A26U G27U G35A has a self-cleavage of 0.17.
For A16G C18U G33C C37A U38G, the self-cleavage was 0.03.
Variant A16U C18U C23A A39G has a self-cleavage of 0.03.
In the case of A16U A39C C42G, the self-cleavage is reported as 0.01.
Variant G17A C31A U32G G36U has a self-cleavage of 0.04.
For A16U C18G G30A, the self-cleavage was 0.25.
With A16C U28G G40A the self-cleavage was 0.01.
In the case of A16C U34C C37A, the self-cleavage is reported as 0.
Variant A16G G36A G40A U43C has a self-cleavage of 0.08.
For A16C U32C A39C, the self-cleavage was 0.
A16U A41G C46A showed a self-cleavage of 0.01.
For A16U G19C A41C, the self-cleavage was 0.
Work on A16U G30C C37G yielded a self-cleavage of 0.03.
A16U G17A G44A C45G showed a self-cleavage of 0.1.
In the case of A16C U32C U38G, the self-cleavage is reported as 0.01.
For A16G G27A U43A, the self-cleavage was 0.
For A16G G27A U43G, the self-cleavage was 0.02.
In the case of A16G G17C U28C G33A, the self-cleavage is reported as 0.03.
Work on A16C G35C G36U yielded a self-cleavage of 0.04.
In the case of A16U C37G G40U, the self-cleavage is reported as 0.03.
For A16U A26C A41C, the self-cleavage was 0.
For A16C U20G C31U, the self-cleavage was 0.02.
Work on A16G G17A G22U yielded a self-cleavage of 0.03.
For A16G C18A G36U A41C, the self-cleavage was 0.01.
With A16U A26G U43A the self-cleavage was 0.
For G17A C18U C23A A41U, the self-cleavage was 0.02.
Work on A16U G19C U32G A39C yielded a self-cleavage of 0.02.
A16G C23A G33A G40C gave a self-cleavage of 0.02.
Work on A16U G19U U34C yielded a self-cleavage of 0.01.
Variant A16U G33U G40U has a self-cleavage of 0.1.
In the case of A16C U20C C23G U28C G33U A41U C42A, the self-cleavage is reported as 0.04.
Variant A16U G19A G27U has a self-cleavage of 0.14.
In the case of A16U G36C C45U, the self-cleavage is reported as 0.
G17A C31A U32C U34C gave a self-cleavage of 0.04.
Work on A16G G27U C45G yielded a self-cleavage of 0.02.
Work on A16G G21U U28G U32A yielded a self-cleavage of 0.06.
For A16U U28C C45A, the self-cleavage was 0.08.
A16U A25U G29U showed a self-cleavage of 0.28.
Variant A16U G22C G40U has a self-cleavage of 0.03.
For A16G C18A U32A, the self-cleavage was 0.2.
A16G G27C U28C gave a self-cleavage of 1.04.
Variant A16U G40U U43A has a self-cleavage of 0.3.
Variant A16U G40U U43C has a self-cleavage of 0.03.
Variant G17A C18G G19A U28G has a self-cleavage of 0.09.
Work on A16G G17C U32G yielded a self-cleavage of 0.14.
Variant A16G G22U G35C C46G has a self-cleavage of 0.
A16G G21A G35A A39C A41U showed a self-cleavage of 0.01.
A16U C18U G22U C45U gave a self-cleavage of 0.03.
In the case of A16U G21C U28A, the self-cleavage is reported as 0.21.
With A16U G35U G40C G44C the self-cleavage was 0.01.
With A16G G17U U28G the self-cleavage was 0.4.
A16G G21U A41G gave a self-cleavage of 0.03.
In the case of A16G C18A G27U G33U C42G C45U, the self-cleavage is reported as 0.01.
For A16U C18U A25G, the self-cleavage was 0.
G17A A26U U28G showed a self-cleavage of 0.08.
Variant A16U A24G C46U has a self-cleavage of 0.07.
Variant A16G G22C A41U has a self-cleavage of 0.04.
With A16U G22C C31A G36A the self-cleavage was 0.05.
Variant A16U G36C C42A has a self-cleavage of 0.03.
Work on A16G A25U G27U yielded a self-cleavage of 1.96.
For A16G A25U G27A, the self-cleavage was 0.35.
Variant A16C G44U C45A has a self-cleavage of 0.01.
With A16G G19A C23U the self-cleavage was 0.35.
In the case of A16C U20C A39C C45A, the self-cleavage is reported as 0.02.
Work on A16G C37A U38A yielded a self-cleavage of 0.02.
A16G G22U U38A G40C gave a self-cleavage of 0.01.
For A16G G19C G29C, the self-cleavage was 0.04.
A16G G19U C31U C37G gave a self-cleavage of 0.02.
With G17A A26C C45A the self-cleavage was 0.01.
A16G A41C G44C gave a self-cleavage of 0.06.
For A16G C37G A41G, the self-cleavage was 0.
With A16G G17C G22A G29U A39C the self-cleavage was 0.06.
Variant A16C U20A A39C has a self-cleavage of 0.02.
G17A C23U A24G G27C showed a self-cleavage of 0.26.
For A16G G22U G33A, the self-cleavage was 0.03.
In the case of A16U C37A G40U, the self-cleavage is reported as 0.04.
For A16U C18A U20A C31A, the self-cleavage was 0.03.
For A16G A41U C45A, the self-cleavage was 0.05.
A16G C23A A25U showed a self-cleavage of 0.23.
Work on A16U C18U G36C yielded a self-cleavage of 0.03.
Work on A16G C31A C37A yielded a self-cleavage of 0.1.
Work on A16G G19U G40U yielded a self-cleavage of 0.
Work on G17A A25C G29C G33A G35U yielded a self-cleavage of 0.01.
In the case of A16G C31U G44A, the self-cleavage is reported as 0.03.
A16G G17A A24U showed a self-cleavage of 0.04.
For A16G C18A G19A A24U, the self-cleavage was 0.12.
With A16U G17C G22A the self-cleavage was 0.38.

— the RNAGym collection of RNA variant scans (doi:10.7554/elife.90254)
